Source: patent EP3262942A1, “SELENODIARYLS FOR USE AS MICROBICIDE OR AS MEDICINE” (Evonik Degussa GmbH, priority 2016, dated 2018)

System: S. italica und L. sativum
Experiment: Crop plant growth test, summary statement for both crop plants
Type: in vivo
Description: Testsubstanzen und Kontrollen werden auf Filterrondellen in Mikrotiterplatten (48 well) vorgelegt und das verwendete Lösungsmittel (DMSO) über Lyophilisation entfernt. Anschließend werden ca. 12 Samen pro Vertiefung (Setaria italical Lepidium sativum) zugeben, mit 200 µl sterilem Leitungswasser pro Vertiefung versetzt, mit einem Deckel versehen und in einer feuchten Kammer für 4 Tage im Pflanzenbrutschrank inkubiert (16h-Licht-8h-Dunkel-Rhythmus). Die Auswertung des Tests erfolgt optisch (+: mind. 75 % Wachstumshemmung im Vergleich zur Kontrolle, -: weniger als 75 % Wachstumshemmung im Vergleich zur Kontrolle.

Row | SMILES | Effekt auf die getesteten Nutzpflanzen (S. italica und L. sativum)
1 | Cc1cc([Se]c2cc(C)c(O)c(C)c2)cc(C)c1O [Verbindung 19, Bis(3,5-dimethyl-4-hydroxyphenyl)selen] | wachstumshemmenden Effekt
2 | Oc1c(Cl)cc(F)cc1[Se]c1cc(F)cc(Cl)c1O [Verbindung 24, Bis(3-chlor-5-fluor-2-hydroxyphenyl)selen] | wachstumshemmenden Effekt
3 | Oc1c(F)cc(F)cc1[Se]c1cc(F)cc(F)c1O [Verbindung 25, Bis(3,5-difluoro-2-hydroxyphenyl)selen] | wachstumshemmenden Effekt
4 | Cc1cc(Br)c(O)c([Se]c2cc(C)cc(Br)c2O)c1 [Verbindung 23, Bis(3-brom-2-hydroxy-5-methylphenyl)selen] | keine Schädigung von Nutzpflanzen
5 | Cc1c(Cl)cc(C(C)C)c(O)c1[Se]c1c(C)c(Cl)cc(C(C)C)c1O [Verbindung 21, Bis(3-chlor-6-hydroxy-5-isopropyl-2-methylphenyl)selen] | keine Schädigung von Nutzpflanzen
6 | Cc1cc(C)c(O)c([Se]c2c(C)c(C)cc(C)c2O)c1C [Verbindung 17, Bis(2-hydroxy-3,5,6-trimethylphenyl)selen] | wachstumshemmenden Effekt
7 | Cc1cc(Cl)cc([Se]c2cc(Cl)cc(C)c2O)c1O [Verbindung 22, Bis(3-chlor-6-hydroxy-5-methylphenyl)selen] | keine Schädigung von Nutzpflanzen
